# Assay results as given in the supplement of paper PMC3334620.
# The full ranking holds about 33,000 sequences; the median of “E-score (-0.5 to 0.5)” is about -0.012, and the highest 2% start at about 0.27. This is one part of the list.
# Target: T1, Vhr1 (UniProt P40522)
# T1 sequence: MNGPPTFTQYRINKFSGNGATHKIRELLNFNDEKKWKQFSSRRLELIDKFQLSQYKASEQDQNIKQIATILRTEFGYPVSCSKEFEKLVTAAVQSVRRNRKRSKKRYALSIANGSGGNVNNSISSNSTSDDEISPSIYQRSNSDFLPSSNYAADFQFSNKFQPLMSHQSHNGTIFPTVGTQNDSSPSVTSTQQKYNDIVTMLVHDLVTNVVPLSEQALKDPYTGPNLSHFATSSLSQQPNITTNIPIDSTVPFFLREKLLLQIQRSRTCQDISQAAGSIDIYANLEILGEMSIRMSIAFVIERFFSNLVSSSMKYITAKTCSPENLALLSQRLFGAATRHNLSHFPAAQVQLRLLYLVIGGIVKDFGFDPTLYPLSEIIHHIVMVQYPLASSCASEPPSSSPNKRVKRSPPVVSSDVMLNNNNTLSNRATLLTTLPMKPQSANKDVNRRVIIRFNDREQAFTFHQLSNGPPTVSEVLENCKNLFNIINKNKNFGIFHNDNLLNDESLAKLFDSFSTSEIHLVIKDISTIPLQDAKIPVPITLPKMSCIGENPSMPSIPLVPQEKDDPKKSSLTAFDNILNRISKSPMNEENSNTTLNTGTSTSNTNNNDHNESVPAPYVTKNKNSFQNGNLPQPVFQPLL
# Experiment: PBM E-score (8-mer binding enrichment) (E-score (-0.5 to 0.5)); higher = stronger / more preferred TF binding; most listed sequences are background and not binding sites
# Conditions: protein concentration: 200 nM; construct: GST-full length
# Outline: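 For each ungapped eight-base word taken together with its reverse complement, the Universal PBM Analysis Suite assigned an E-score. Binding data came from GST-tagged yeast transcription factors, applied at about 100-200 nM, on universal all-10-mer Agilent arrays made double-stranded by primer extension. Fluorescent anti-GST marked bound protein, and scans were normalised with masliner.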
row,Sequence,PBM E-score
1,CCAACACC,-0.0592
2,AAAGTGTG,0.014
3,AAAACTCC,-0.0572
4,GTCGTAAA,-0.104
5,CCAAATGA,0.133
6,GCAGTCAA,0.0401
7,AGCTGGGC,-0.127
8,AGCGGAAT,-0.0549
9,CGAACGCC,-0.298
10,GATCATTA,0.155
11,ACACGGTC,0.0707
12,AGTTACAG,-0.0387
13,CACGATAG,-0.00683
14,AATATTTA,-0.153
15,ATGCACTG,0.0983
16,AAATTCGA,-0.181
17,GGCATTGA,0.0174
18,AGATCGAC,-0.0907
19,TCCACACA,0.0281
20,CTAAAAAG,-0.279
21,CAGTGTCG,0.11
22,GCCAAGGC,-0.017
23,AAGCCCTA,-0.148
24,CTTAACAC,-0.0463
25,CCCTGCAA,-0.148

row,Sequence,PBM E-score
1,ACGGGAGT,0.239
2,CACCTCGC,-0.0515
3,AGTTATTG,0.0204
4,CAAGCGTA,-0.199
5,GTTATCGA,0.149
6,ACTTAAAA,-0.317
7,ATGCGCGC,0.265
8,ACGGTTGC,-0.0413
9,AAGGGGCC,-0.107
10,CTGGCCAA,-0.0386
11,CGGCTATC,-0.124
12,CACATTCC,0.111
13,CCCATAGG,-0.192
14,GTATCAAA,0.0743
15,CCTTGGCA,-0.191
16,ATTCCCGC,0.0182
17,CCCGCTGA,-0.0701
18,CCCTATTC,-0.0746
19,AGGAGCCG,-0.0921
20,AGAGAACA,-0.147
21,ACATAGCC,0.129
22,AACTATTC,-0.0198
23,ACTCCACC,0.222
24,GGTGGTCA,0.00378
25,TGTGGAAA,0.034

row,Sequence,PBM E-score
1,ATCTTTTC,-0.26
2,AGGCAGAG,-0.209
3,AAATCTTC,-0.274
4,GAATTCCA,-0.0684
5,CTAGATAG,-0.0804
6,ATACGGAA,-0.00421
7,ACCTGCCT,-0.0145
8,CCGATCGA,-0.0293
9,AGTCACGC,0.426
10,TCCCAGGA,-0.222
11,GATAGAAA,-0.262
12,TGGCCCCA,-0.236
13,ACTTGGGC,-0.126
14,CCTAAGAG,-0.287
15,AGAGAACC,-0.0613
16,ATTCCCGG,0.0191
17,AGGTAGAG,-0.231
18,CGGCAGTA,-0.109
19,ACAGCGAC,0.00078
20,AAGCTTGC,-0.243
21,GGACGCTA,-0.324
22,ACCGCGAC,0.238
23,CCGTAGAA,-0.33
24,GGCCCATA,-0.0614
25,TTAAGAAA,-0.191

row,Sequence,PBM E-score
1,AAAAATAA,-0.0845
2,CACGTGGG,-0.0182
3,AGAAAATA,-0.0162
4,CCCGGTCC,-0.12
5,GCTCAAGC,-0.169
6,GAAATCGA,-0.049
7,CCCTTCGA,-0.193
8,GAGGTTGC,-0.0739
9,AGAACTCC,-0.0316
10,GTGGGGTA,0.22
11,ACTCGTTG,0.0826
12,TGTTCGAA,-0.0984
13,AACATGAA,0.0738
14,CTCGTTTC,0.0108
15,CGAGGCAC,-0.0316
16,CCGTAATA,0.109
17,CGAGAGAA,6e-05
18,GGAATTAC,-0.128
19,CGCTCTCA,-0.128
20,AATAGGAT,0.0602
21,TACGTTGA,0.0682
22,AGAATCCT,-0.231
23,TAGTGTCA,0.226
24,AGCTTCAA,-0.278
25,TCCCGGAA,-0.0731

row,Sequence,PBM E-score
1,AAGACAGC,-0.134
2,ATTTTAAC,-0.195
3,ATTCACCC,0.135
4,AACCCCCT,-0.155
5,CGTTATCA,-0.0888
6,CTTATGAA,-0.0743
7,TACAGTAA,0.00648
8,GTTCGAAA,-0.141
9,AAGTTTTA,-0.19
10,ATAGGTTC,-0.0497
11,AAGCAATC,0.0299
12,AAAGTAGC,-0.16
13,ACTCTGTA,0.0725
14,ATGACGGG,0.134
15,ATTACATG,0.171
16,CATGGAAG,0.119
17,ATGACCAT,0.13
18,CACGAAGG,-0.0652
19,CTGCATGA,0.128
20,AACGACGT,0.0554
21,CCAACGCG,-0.021
22,AACGCCAT,-0.0891
23,GCAAACGA,-0.0335
24,ACGCGAGA,0.0117
25,CTATCTTC,-0.11

row,Sequence,PBM E-score
1,GAGCAAAC,0.0461
2,GAAGCGGA,0.0653
3,AGGACTAT,-0.00747
4,CCCGGCGA,0.197
5,CCCCTAAC,-0.141
6,CATCACAG,0.0153
7,CCCCCTAC,-0.185
8,CCAATGAA,-0.18
9,CGTGTATC,0.0909
10,ACCACTGA,-0.121
11,ATATAGTC,0.26
12,GGAGTACC,0.104
13,ATGAAATC,0.164
14,ACACCCGA,0.118
15,GCTGAACC,0.0318
16,AAGATTCC,0.0421
17,AGTATATG,0.239
18,CATTGACA,-0.0421
19,CCCTCGTA,0.05
20,CGCCCGGC,-0.0419
21,AGGGCGTG,-0.0396
22,GGAACCGA,0.0439
23,CGGGATTC,0.159
24,AACGCTAA,-0.123
25,CTTTGGTC,-0.0584

row,Sequence,PBM E-score
1,AGTTCTCC,-0.0759
2,CTAAATCC,0.044
3,GCTTGTAA,-0.0558
4,ATCCATGG,0.0727
5,CCTTGGTA,-0.0952
6,AGCACTAA,0.00464
7,AGGTAGGC,-0.0538
8,CACGTCGA,0.0334
9,CATTGAGG,-0.214
10,GGATCAAA,-0.0301
11,AAAGACGA,-0.0583
12,GGATCGCC,0.0753
13,GACAGGTA,-0.0817
14,AGGGAGAG,-0.0561
15,ACAAGTAC,0.00989
16,CACAGCAC,0.164
17,GGCTACAC,0.134
18,AATTTTCG,-0.296
19,AGGACAAG,-0.249
20,CGTATATA,-0.149
21,CTCACAAG,0.155
22,GAGATCAA,0.0698
